# Measured values as given in the supplement of paper PMC9135407.
# Values joined by “and” are separate entries in the source; they are usually repeats but may differ in a detail not shown here. Equal values may be shown once. Where a name gives a salt, the structure may show the parent alone. About 620 (11%) of roughly 5,800 compounds showed activity.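 The calls were made as follows: active = score above a cut-off or among the top three wells of a plate; in these data no inactive exceeds 0.85.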 This is a selection; strong and weak results do not stand in their true shares.
# Tested on: primary human hepatic stellate cells (donor 1)
# Test: scaled lipid accumulation score (0 = DMSO-like, 1 = nortriptyline-like); higher = stronger HSC inactivation (lipid re-accumulation), active = hit call of the paper
# Conditions: 48 h
# [1] = library stock concentration: 3.33 mM
# [2] = library stock concentration: 10 mM
# [3] = library stock concentration: 1 mM
# [4] = library stock concentration: 80 uM
# [5] = library stock concentration: 400 uM
# [6] = library stock concentration: 2 mM
# [7] = library stock concentration: 4.9 mM
smiles,measurement,setting,value
Cl.Cl.NC1(c2ccc(-c3nc4ccn5c(=O)[nH]nc5c4cc3-c3ccccc3)cc2)CCC1,scaled lipid accumulation score,[1],active: 1.35
same,scaled lipid accumulation score,[2],active: 1.02
Cc1ccc(/C(=C\CN2CCCC2)c2ccccn2)cc1 [Triprolidine hydrochloride],scaled lipid accumulation score,,inactive: 0.282
same,scaled lipid accumulation score,library stock concentration: 6.4 mM,inactive: 0.123
same,scaled lipid accumulation score,[2],inactive: ≤ 0 and inactive: 0.092
Cc1ccc(/C(=C\CN2CCCC2)c2ccccn2)cc1 [trans-Triprolidine hydrochloride],scaled lipid accumulation score,[2],inactive: 0.207
CC(C)(O/N=C(\C(=O)N[C@@H]1C(=O)N2C(C(=O)[O-])=C(C[n+]3ccccc3)CS[C@H]12)c1csc(N)n1)C(=O)O [Ceftazidime pentahydrate],scaled lipid accumulation score,,inactive: 0.085
Cc1c(Cl)cccc1Nc1ncccc1C(=O)O [Clonixin Lysinate],scaled lipid accumulation score,,inactive: ≤ 0
O=c1onc2n1-c1cc(Br)ccc1OC2,scaled lipid accumulation score,[3],inactive: ≤ 0
same,scaled lipid accumulation score,[2],inactive: 0.212
CCOC(=O)NCCCC(=O)NCCc1ccccc1,scaled lipid accumulation score,[1],inactive: ≤ -0.009
same,scaled lipid accumulation score,[2],inactive: ≤ 0
C[C@H]1O[C@H](O[C@H]2[C@H](O)[C@@H](O)[C@@H](O[C@H]3[C@H](O)[C@@H](O)C(O)O[C@@H]3CO)O[C@@H]2CO)[C@H](O)[C@@H](O)[C@@H]1N[C@H]1C=C(CO)[C@@H](O)[C@H](O)[C@H]1O (some centres not stated),scaled lipid accumulation score,[2],inactive: ≤ 0
C[C@H]1O[C@H](O[C@H]2[C@H](O)[C@@H](O)[C@@H](O[C@H]3[C@H](O)[C@@H](O)C(O)O[C@@H]3CO)O[C@@H]2CO)[C@H](O)[C@@H](O)[C@@H]1N[C@H]1C=C(CO)[C@@H](O)[C@H](O)[C@H]1O (some centres not stated) [Acarbose],scaled lipid accumulation score,library stock concentration: 3.1 mM,inactive: ≤ 0
same,scaled lipid accumulation score,[1],inactive: ≤ 0
same,scaled lipid accumulation score,[2],inactive: 0.016 and inactive: ≤ -0.001
CC(C)(C=O)Cc1cc(C(C)(C)C)c(O)c(C(C)(C)C)c1,scaled lipid accumulation score,[2],inactive: 0.21 and inactive: ≤ -0.006
C[C@@H](Oc1ccc2[nH]nc(/C=C/c3cnn(CCO)c3)c2c1)c1c(Cl)cncc1Cl,scaled lipid accumulation score,[4],inactive: ≤ 0
same,scaled lipid accumulation score,[5],inactive: ≤ 0
same,scaled lipid accumulation score,[6],inactive: ≤ 0
same,scaled lipid accumulation score,[2],inactive: 0.209
CNC1CCCN(c2c(F)cc3c(=O)c(C(=O)O)cn(C4CC4)c3c2OC)C1 (configuration not stated) [Balofloxacin],scaled lipid accumulation score,[1],inactive: ≤ 0
same,scaled lipid accumulation score,[2],inactive: ≤ 0
NCC(O)C1CCCCCCC1 (configuration not stated) [2-Cyclooctyl-2-hydroxyethylamine hydrochloride],scaled lipid accumulation score,[2],inactive: 0.647
CCCCC[C@H](O)/C=C/[C@@H]1[C@@H](CCCCCCC(=O)O)[C@H](O)C[C@H]1O [Prostaglandin F1.beta.],scaled lipid accumulation score,[3],inactive: ≤ 0
CN1CCC(=C2c3ccccc3C=Cc3ccccc32)CC1,scaled lipid accumulation score,[2],active: 1.32
CN1CCC(=C2c3ccccc3C=Cc3ccccc32)CC1 [Cyproheptadine HCl],scaled lipid accumulation score,[1],inactive: 0.629
same,scaled lipid accumulation score,[2],inactive: 0.63
CN1CCC(=C2c3ccccc3C=Cc3ccccc32)CC1 [Cyproheptadine hydrochloride],scaled lipid accumulation score,library stock concentration: 6.2 mM,inactive: 0.686
CN1CCC(=C2c3ccccc3C=Cc3ccccc32)CC1 [Cyproheptadine],scaled lipid accumulation score,library stock concentration: 7 mM,inactive: 0.351
CC(C)(C)NC[C@@H](O)COc1cccc2c1CCCC2=O [(+) -Levobunolol hydrochloride],scaled lipid accumulation score,,inactive: ≤ 0
CO[C@H]1/C=C/O[C@@]2(C)Oc3c(C)c(O)c4c(O)c(c(/C=N/N5CCN(C6CCCC6)CC5)c(O)c4c3C2=O)NC(=O)/C(C)=C\C=C\[C@H](C)[C@H](O)[C@@H](C)[C@@H](O)[C@@H](C)[C@H](OC(C)=O)[C@@H]1C [Rifapentine],scaled lipid accumulation score,[1],inactive: ≤ 0
same,scaled lipid accumulation score,[2],inactive: ≤ 0
CO[C@H]1/C=C/O[C@@]2(C)Oc3c(C)c(O)c4c(O)c(c(/C=N/N5CCN(C6CCCC6)CC5)c(O)c4c3C2=O)NC(=O)/C(C)=C\C=C\[C@H](C)[C@H](O)[C@@H](C)[C@@H](O)[C@@H](C)[C@H](OC(C)=O)[C@@H]1C,scaled lipid accumulation score,[2],inactive: ≤ 0 and inactive: 0.131
N=C(N)NC(=N)NCCc1ccccc1 [Phenformin HCl],scaled lipid accumulation score,[1],inactive: ≤ 0
same,scaled lipid accumulation score,[2],inactive: ≤ 0
N=C(N)NC(=N)NCCc1ccccc1 [Phenformin hydrochloride],scaled lipid accumulation score,,inactive: 0.025
same,scaled lipid accumulation score,library stock concentration: 8.3 mM,inactive: ≤ 0
CC(=O)S[C@@H]1CC2=CC(=O)CC[C@]2(C)[C@H]2CC[C@@]3(C)[C@@H](CC[C@@]34CCC(=O)O4)[C@H]12 [Spironolactone],scaled lipid accumulation score,,inactive: 0.026
same,scaled lipid accumulation score,[1],inactive: ≤ 0
same,scaled lipid accumulation score,library stock concentration: 4.8 mM,inactive: ≤ 0
same,scaled lipid accumulation score,[2],inactive: ≤ -0.001 and inactive: ≤ 0
CCCc1cc(C(N)=S)ccn1 [Prothionamide],scaled lipid accumulation score,[2],inactive: ≤ -0.027
CCCc1cc(C(N)=S)ccn1 [Protionamide],scaled lipid accumulation score,[1],inactive: ≤ 0
same,scaled lipid accumulation score,[2],inactive: ≤ 0
CCCCCCCCCCCCCCCCCC=CC(=O)O [.DELTA.2-cis Eicosenoic Acid],scaled lipid accumulation score,[3],inactive: 0.011
COc1cc2c(Nc3ccc(NC(=O)c4ccccc4)cc3)ncnc2cc1OCCCN1CCOCC1,scaled lipid accumulation score,[4],inactive: ≤ -0.001
same,scaled lipid accumulation score,[5],inactive: ≤ -0.009
same,scaled lipid accumulation score,[6],inactive: 0.256
O=C(O)[C@]1(Cc2cccc(Nc3nccs3)n2)CC[C@@H](Oc2cccc(Cl)c2F)CC1,scaled lipid accumulation score,[1],inactive: ≤ 0
same,scaled lipid accumulation score,[2],inactive: 0.039
CC(Cc1cccc(C(F)(F)F)c1)NCCOC(=O)c1ccccc1 (configuration not stated) [Benfluorex hydrochloride],scaled lipid accumulation score,,inactive: 0.522
same,scaled lipid accumulation score,[2],inactive: ≤ 0
C=C1CC[C@H](O)C/C1=C/C=C1\CCC[C@]2(C)[C@@H]([C@H](C)CCCC(C)C)CC[C@@H]12 [Cholecalciferol],scaled lipid accumulation score,,inactive: 0.021
same,scaled lipid accumulation score,library stock concentration: 5.2 mM,inactive: ≤ 0
NC1(C(=O)O)CCCCC1 [1-Amino-1-cyclohexanecarboxylic acid hydrochloride],scaled lipid accumulation score,[2],inactive: 0.029
NNCCc1ccccc1,scaled lipid accumulation score,[2],inactive: ≤ 0
NNCCc1ccccc1 [Phenelzine sulfate],scaled lipid accumulation score,,inactive: 0.022
same,scaled lipid accumulation score,[2],inactive: 0.002 and inactive: ≤ 0
NNCCc1ccccc1 [Phenelzine],scaled lipid accumulation score,[2],inactive: ≤ 0
COC(=O)C1=C(C)NC(C)=C(C(=O)OCCCN2CCC(c3ccccc3)(c3ccccc3)CC2)[C@@H]1c1cccc([N+](=O)[O-])c1 [(R)-(-)-Niguldipine hydrochloride],scaled lipid accumulation score,[2],inactive: ≤ -0.006
CC(=O)OCC(=O)[C@@]1(O)CC[C@H]2[C@@H]3CCC4=CC(=O)C=C[C@]4(C)[C@@]3(Cl)[C@@H](Cl)C[C@@]21C,scaled lipid accumulation score,[2],inactive: ≤ 0
CCCCN(CCCC)CCCOC(=O)c1ccc(N)cc1 [Butacaine],scaled lipid accumulation score,,inactive: ≤ 0
same,scaled lipid accumulation score,[2],inactive: 0.192
Cc1ccc(C(=O)c2ccc(CC(=O)O)n2C)cc1 [Tolmetin sodium],scaled lipid accumulation score,library stock concentration: 7.2 mM,inactive: ≤ 0
same,scaled lipid accumulation score,[2],inactive: ≤ 0
Cc1ccc(C(=O)c2ccc(CC(=O)O)n2C)cc1 [Tolmetin sodium salt dihydrate],scaled lipid accumulation score,,inactive: ≤ 0
COC(=O)Nc1nc2cc(C(=O)c3cccs3)ccc2[nH]1 [Nocodazole],scaled lipid accumulation score,[1],inactive: 0.021
same,scaled lipid accumulation score,library stock concentration: 6.6 mM,inactive: 0.262
CC[N+](C)(CC)CCOC(=O)C1c2ccccc2Oc2ccccc21 [Methantheline bromide],scaled lipid accumulation score,,inactive: ≤ 0
O=C(O)CN1C(=O)c2cccc3cccc(c23)C1=O [Alrestatin],scaled lipid accumulation score,library stock concentration: 7.8 mM,inactive: 0.015
same,scaled lipid accumulation score,[2],inactive: ≤ 0
CCCn1ncc(-c2ccnc(NC3CC(C)(C)NC(C)(C)C3)n2)c1C,scaled lipid accumulation score,[2],active: 0.86
CC(=O)OCC(=O)[C@@]1(O)CC[C@H]2[C@@H]3CCC4=CC(=O)CC[C@]4(C)[C@@]3(F)[C@@H](O)C[C@@]21C [Fludrocortisone acetate],scaled lipid accumulation score,,inactive: 0.002
same,scaled lipid accumulation score,library stock concentration: 4.7 mM,inactive: ≤ -0.001
same,scaled lipid accumulation score,[2],inactive: ≤ 0
O=C(O)CCCCCCCC(=O)O [Azelaic acid],scaled lipid accumulation score,[2],inactive: 0.136 and inactive: ≤ 0
same,scaled lipid accumulation score,library stock concentration: 10.6 mM,inactive: ≤ 0
COc1cc(Br)c(Nc2nc(-c3c(C)nc4ncccn34)cs2)c(Br)c1,scaled lipid accumulation score,[1],inactive: 0.014 and inactive: ≤ -0.009
same,scaled lipid accumulation score,[2],inactive: 0.744 and inactive: 0.132
COc1ccc2c3c([nH]c2c1)[C@H]1C[C@H]2[C@H](C[C@@H](O)[C@H](OC)[C@H]2C(=O)O)CN1CC3 [Reserpinic acid hydrochloride],scaled lipid accumulation score,,inactive: ≤ 0
CN1CCN(C2=Nc3cc(Cl)ccc3Nc3ccccc32)CC1 [Clozapine],scaled lipid accumulation score,[2],active: 0.967
NS(=O)(=O)c1cc(C2(O)NC(=O)c3ccccc32)ccc1Cl (configuration not stated) [Chlorthalidone],scaled lipid accumulation score,,inactive: ≤ 0
same,scaled lipid accumulation score,library stock concentration: 5.9 mM,inactive: ≤ -0.001
same,scaled lipid accumulation score,[2],inactive: ≤ 0
CCCCCCCCCCCCCCCC(=O)OC/C=C(C)/C=C/C=C(C)/C=C/C1=C(C)CCCC1(C)C [Retinyl palmitate],scaled lipid accumulation score,[2],inactive: 0.112
C=CC(N)CCC(=O)O (configuration not stated) [(?)-gamma-Vinyl GABA],scaled lipid accumulation score,[2],inactive: ≤ 0
C=CC(N)CCC(=O)O (configuration not stated) [Vigabatrin],scaled lipid accumulation score,,inactive: 0.039
same,scaled lipid accumulation score,library stock concentration: 15.5 mM,inactive: 0.02
O=C(O)Cc1c2ccccc2n2c1[nH]c(=O)c1ccccc12,scaled lipid accumulation score,[4],inactive: ≤ -0.001
same,scaled lipid accumulation score,[5],inactive: ≤ -0.001
same,scaled lipid accumulation score,[6],inactive: ≤ -0.001
same,scaled lipid accumulation score,[2],inactive: ≤ -0.001
CC(=O)OCC(=O)[C@@]1(O)CC[C@H]2[C@@H]3CCC4=CC(=O)CC[C@]4(C)[C@H]3[C@@H](O)C[C@@]21C [Hydrocortisone acetate],scaled lipid accumulation score,[7],inactive: ≤ -0.001
same,scaled lipid accumulation score,[2],inactive: ≤ 0
CC(=O)OCC(=O)[C@@]1(O)CC[C@H]2[C@@H]3CCC4=CC(=O)CC[C@]4(C)[C@H]3[C@@H](O)C[C@@]21C [Cortell],scaled lipid accumulation score,[2],inactive: ≤ 0
CC(=O)OCC(=O)[C@@]1(O)CC[C@H]2[C@@H]3CCC4=CC(=O)CC[C@]4(C)[C@H]3[C@@H](O)C[C@@]21C [Hydrocortisone 21-acetate],scaled lipid accumulation score,[7],inactive: ≤ 0
